Measured values from the supplement of paper PMC10126150.
Sequences with one replicate were seen in a single cluster, so their values are uncertain.

tested on: ATP; experiment: switch fluorescence ratio, 500 uM ATP over buffer (Cy3 cluster intensity, sum of 5 cycles each) (fold (ratio)); higher = stronger signal-on switching upon ATP binding; sequences stand for … in TCGTCGGCAGCGTCAGATGTGTATAAGAGACAGTTTTTTTTTTTTTTTTTTTTTTTTT…TC; details: aptamer strand: ATP DNA aptamer (quencher-CACCTGGGGGAGTATTGCGGAGGAAGG + anchor), 100 nM annealed; ATP concentration: 500 uM; one replicate
Procedure, shortened: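 After annealing to 100 nM quencher-labelled ATP aptamer, Cy3-labelled switching-strand clusters on a modified Illumina MiSeq flow-cell were imaged in selection buffer. A second image followed after 15 min with 500 uM ATP at 22 °C, and five such buffer/ATP cycles were done, each separated by NaOH stripping and re-annealing. The fluorescence ratio, averaged per switch-domain sequence, is summed target-cycle over summed buffer-cycle Cy3 intensity per cluster, with clusters outside 100-1000 RFU excluded.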
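Further: ATP exposure 15 min at 22 °C before imaging.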

Sequence | switch fluorescence ratio
CCTGCTTGTG | 1.01
CCTGGAAAAT | 1.04
CCTGGAAGGC | 1.12
CCTGGATCCA | 1.01
CCTGGCTGTA | 1.09
CCTGGCTGTT | 1.13
CCTGGGGACG | 0.971
CCTGGGGTGC | 1.66
CCTGGTATCC | 1.01
CCTGGTGTAC | 2.08
CCTGTACAT | 1.03
CCTGTGCAG | 2.45
CCTGTGTCAT | 1.1
CCTGTTTGTC | 0.967
CCTTAATTG | 1.01
CCTTAGGTTG | 1.07
CCTTATGCA | 1.36
CCTTATTTAT | 1.03
CCTTCATAG | 1.18
CCTTCTTAAT | 1.14
CCTTCTTGTG | 1.05
CCTTGACTTT | 0.982
CCTTGCTTTT | 3.24
CCTTGGCCCG | 1.06
CCTTGGGCCC | 0.986
CCTTGGGCGG | 1.12

Sequence | switch fluorescence ratio
CCTTGGTCA | 1.08
CCTTGGTTCG | 1.04
CCTTTAGTAG | 1.03
CCTTTCGGCA | 1.35
CCTTTGGGTG | 1.21
CCTTTTAAAG | 0.951
CCTTTTTCAG | 1.27
CCTTTTTCTG | 1.01
CGAAAATGCG | 0.999
CGAAAATTGT | 1.02
CGAAACTCGA | 0.971
CGAAAGAACG | 1.04
CGAAAGCCTT | 0.985
CGAAAGGAAT | 0.996
CGAAAGGTTC | 1.04
CGAAATGGTA | 0.94
CGAAATTTGC | 0.993
CGAACAGACG | 1.07
CGAACTCTAG | 1.04
CGAACTGCCA | 1.04
CGAACTTACA | 1.18
CGAAGATAGG | 1
CGAAGATCCG | 1
CGAAGTCGGT | 1.02
CGAATAGTG | 0.992
CGAATATCCG | 0.98

Sequence | switch fluorescence ratio
CGAATATGTA | 1.02
CGAATCTGGA | 1.04
CGAATCTGTT | 0.987
CGAATGATGG | 0.974
CGAATGTTTT | 1
CGAATTTCAG | 0.974
CGAATTTGTA | 1.02
CGACACGAAG | 0.992
CGACATGCAT | 1.2
CGACCTGCTC | 1.41
CGACCTTCCG | 2.86
CGACGATGCT | 1.17
CGACGCGTAA | 7.2
CGACGCTGGT | 2.65
CGACGGCTTA | 1.15
CGACGGGGTA | 1.37
CGACGGTTAG | 0.972
CGACGTACGT | 1.2
CGACGTAGTA | 1.32
CGACGTCAAT | 4.81
CGACGTGCAA | 3.19
CGACGTTCAG | 0.977
CGACGTTGTG | 1.03
CGACTTCGGG | 0.99
CGACTTGGCC | 1.02
CGACTTTGTT | 1.04

Sequence | switch fluorescence ratio
CGAGAAGTG | 0.999
CGAGAATTGA | 0.967
CGAGACCTCC | 1.31
CGAGAGTTC | 1.01
CGAGATAATT | 0.963
CGAGATACCG | 0.992
CGAGATCAGA | 1.06
CGAGATGAAA | 1.01
CGAGATGGTC | 1.04
CGAGCAATCG | 3.55
CGAGCCACCG | 1.02
CGAGCCCAAC | 1.07
CGAGCGGTTA | 1.02
CGAGCTAGAT | 1.16
CGAGGATTGT | 0.981
CGAGGCTGGG | 1.04
CGAGGGAGAC | 1.46
CGAGGGATCC | 1.03
CGAGGGCGGA | 1.02
CGAGGGTTGA | 0.957
CGAGGTCAAT | 2.74
CGAGTAGAAC | 0.97
CGAGTAGAGT | 1
CGAGTATGC | 1.12
CGAGTCAGTC | 1.08
CGAGTGATAA | 1.24

Sequence | switch fluorescence ratio
CGATACAGGA | 1.05
CGATATTGA | 1.02
CGATCAACAG | 1.03
CGATCAGAGG | 1.02
CGATCAGGC | 1.08
CGATCGGGCA | 1
CGATCGTGAC | 1.5
CGATCTGGTA | 0.985
CGATGAAGGA | 1.03
CGATGACATA | 0.982
CGATGACTAC | 1.66
CGATGGAGT | 1.01
CGATGGCAA | 3.17
CGATGGGT | 0.992
CGATGTCATT | 0.998
CGATTAAGGA | 0.968
CGATTAGGAG | 1.02
CGATTATGAA | 0.98
CGATTATGGG | 0.95
CGATTCAAGA | 1.01
CGATTGAGAG | 0.97
CGCAAAATAT | 1.85
CGCAATAAAG | 6.04
CGCAATCACC | 4.16
CGCACACTTC | 2.47
CGCACAGGCA | 1.06

Sequence | switch fluorescence ratio
CGCACATCGC | 2.2
CGCACCGTTT | 1.02
CGCACGAGGA | 1.05
CGCACGTGAC | 1.62
CGCAGACAG | 1.04
CGCAGCAACG | 2.44
CGCAGCGCGT | 0.999
CGCAGCTGCC | 0.996
CGCAGGAATG | 1.13
CGCAGGAGCT | 1.06
CGCAGGGTTT | 1.07
CGCATAGTTT | 1.08
CGCATATTAG | 1.87
CGCATCACGG | 1.35
CGCATGAGCC | 1.33
CGCATGGATT | 1.03
CGCATGGCCG | 1.05
CGCATTATGC | 2.03
CGCATTTAAA | 1.02
CGCATTTGTG | 1.01
CGCCAATCTG | 1.11
CGCCATCGAA | 1.01
CGCCATGGCG | 1
CGCCATTAAG | 0.972
CGCCCCCCCT | 1.32
CGCCCGGGC | 1.04

Sequence | switch fluorescence ratio
CGCCCGGGTC | 1.31
CGCCCGGTCG | 1.02
CGCCCTTTTG | 0.992
CGCCGCGGTG | 1.07
CGCCGGTGTG | 1.04
CGCCTCATAT | 1.1
CGCCTCTAGT | 1.03
CGCCTCTGAC | 1.3
CGCCTGGTCC | 1.13
CGCCTGTAGA | 1.05
CGCCTGTTTG | 0.989
CGCCTTAATG | 0.973
CGCGAAACG | 0.994
CGCGAACGGC | 1.09
CGCGATTATA | 1.02
CGCGCAGTT | 1.05
CGCGCCCGCG | 0.995
CGCGCGATGA | 1.03
CGCGCGCCGA | 1.02
CGCGCTCATC | 1.19
CGCGCTGGAG | 1
CGCGGAAGTG | 1.11
CGCGGCATAG | 1.16
CGCGGCATTG | 1.05
CGCGGCTCCT | 1.8
CGCGGGACAT | 1.03

Sequence | switch fluorescence ratio
CGCGGGATTT | 0.989
CGCGGGCAG | 0.99
CGCGGGCCTG | 0.98
CGCGGGCTGT | 0.994
CGCGGGTGAG | 1.02
CGCGGTATAA | 1.01
CGCGGTCACT | 1.25
CGCGGTTGTA | 1.06
CGCGTATGGG | 1.04
CGCGTCC | 1.15
CGCGTGAAAG | 1.01
CGCGTTCTGC | 1.01
CGCTAAGTTG | 1.03
CGCTAATGGG | 1.09
CGCTAATGTG | 1.06
CGCTACAGGT | 1.14
CGCTACCGCG | 1.02
CGCTAGAATT | 0.971
CGCTAGATAA | 1.09
